Results are given in words; binding and its absence hold for the method and conditions named. Binding seen in cells or lysates may run through a third protein. Some entries that bind do so weakly or less than the wild type.

The chains behind the UniProt entries cited, without tags or fusion partners.
UniProt A1ZAW0: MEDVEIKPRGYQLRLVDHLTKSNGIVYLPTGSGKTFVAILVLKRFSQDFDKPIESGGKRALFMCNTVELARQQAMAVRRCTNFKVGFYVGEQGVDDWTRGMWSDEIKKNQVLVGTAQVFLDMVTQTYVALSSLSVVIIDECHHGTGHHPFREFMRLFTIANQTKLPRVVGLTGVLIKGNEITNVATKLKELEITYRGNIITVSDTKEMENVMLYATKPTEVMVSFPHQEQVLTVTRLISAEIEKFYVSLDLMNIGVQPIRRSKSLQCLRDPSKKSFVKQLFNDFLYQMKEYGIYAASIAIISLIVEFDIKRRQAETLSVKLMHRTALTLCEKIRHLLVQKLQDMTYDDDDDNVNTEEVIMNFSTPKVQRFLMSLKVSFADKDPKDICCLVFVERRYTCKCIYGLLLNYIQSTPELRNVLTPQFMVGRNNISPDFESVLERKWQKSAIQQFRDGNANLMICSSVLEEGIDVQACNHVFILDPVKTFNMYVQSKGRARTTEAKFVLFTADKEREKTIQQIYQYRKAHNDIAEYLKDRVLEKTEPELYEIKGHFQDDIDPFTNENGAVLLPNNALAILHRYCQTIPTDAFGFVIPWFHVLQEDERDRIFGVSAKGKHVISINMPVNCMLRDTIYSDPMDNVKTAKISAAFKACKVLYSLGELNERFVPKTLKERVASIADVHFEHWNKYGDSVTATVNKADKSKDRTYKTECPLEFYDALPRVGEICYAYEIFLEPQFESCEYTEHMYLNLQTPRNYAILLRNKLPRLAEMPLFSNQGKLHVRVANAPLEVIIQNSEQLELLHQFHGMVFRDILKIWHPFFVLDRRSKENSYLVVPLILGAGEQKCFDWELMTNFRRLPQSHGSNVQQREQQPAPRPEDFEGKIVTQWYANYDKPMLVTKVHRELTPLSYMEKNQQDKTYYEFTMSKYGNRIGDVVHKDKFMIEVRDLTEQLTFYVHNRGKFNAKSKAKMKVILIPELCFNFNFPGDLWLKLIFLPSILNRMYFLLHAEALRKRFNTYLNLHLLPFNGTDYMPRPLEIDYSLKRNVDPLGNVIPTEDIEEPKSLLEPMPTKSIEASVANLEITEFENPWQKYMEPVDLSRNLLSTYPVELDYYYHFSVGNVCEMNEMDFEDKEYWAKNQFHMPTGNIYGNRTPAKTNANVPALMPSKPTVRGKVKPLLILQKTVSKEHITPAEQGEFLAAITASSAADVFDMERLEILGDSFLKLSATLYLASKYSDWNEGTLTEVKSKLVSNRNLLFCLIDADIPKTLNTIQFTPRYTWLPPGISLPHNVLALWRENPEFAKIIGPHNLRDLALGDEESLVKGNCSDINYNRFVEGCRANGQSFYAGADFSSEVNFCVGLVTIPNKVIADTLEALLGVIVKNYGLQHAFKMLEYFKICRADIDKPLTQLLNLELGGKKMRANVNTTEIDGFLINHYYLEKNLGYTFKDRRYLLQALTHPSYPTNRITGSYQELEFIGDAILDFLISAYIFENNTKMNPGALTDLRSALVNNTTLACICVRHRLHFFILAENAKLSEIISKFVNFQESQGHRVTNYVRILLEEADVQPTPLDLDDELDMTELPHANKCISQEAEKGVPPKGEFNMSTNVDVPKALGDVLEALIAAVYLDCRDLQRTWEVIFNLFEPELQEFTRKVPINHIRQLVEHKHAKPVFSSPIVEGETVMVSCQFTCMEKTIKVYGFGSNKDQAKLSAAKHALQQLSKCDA

Assay [1] addresses T1, Wispy (Drosophila melanogaster (endogenous in 90 min embryos)) (UniProt Q9VYS4).
T1 sequence: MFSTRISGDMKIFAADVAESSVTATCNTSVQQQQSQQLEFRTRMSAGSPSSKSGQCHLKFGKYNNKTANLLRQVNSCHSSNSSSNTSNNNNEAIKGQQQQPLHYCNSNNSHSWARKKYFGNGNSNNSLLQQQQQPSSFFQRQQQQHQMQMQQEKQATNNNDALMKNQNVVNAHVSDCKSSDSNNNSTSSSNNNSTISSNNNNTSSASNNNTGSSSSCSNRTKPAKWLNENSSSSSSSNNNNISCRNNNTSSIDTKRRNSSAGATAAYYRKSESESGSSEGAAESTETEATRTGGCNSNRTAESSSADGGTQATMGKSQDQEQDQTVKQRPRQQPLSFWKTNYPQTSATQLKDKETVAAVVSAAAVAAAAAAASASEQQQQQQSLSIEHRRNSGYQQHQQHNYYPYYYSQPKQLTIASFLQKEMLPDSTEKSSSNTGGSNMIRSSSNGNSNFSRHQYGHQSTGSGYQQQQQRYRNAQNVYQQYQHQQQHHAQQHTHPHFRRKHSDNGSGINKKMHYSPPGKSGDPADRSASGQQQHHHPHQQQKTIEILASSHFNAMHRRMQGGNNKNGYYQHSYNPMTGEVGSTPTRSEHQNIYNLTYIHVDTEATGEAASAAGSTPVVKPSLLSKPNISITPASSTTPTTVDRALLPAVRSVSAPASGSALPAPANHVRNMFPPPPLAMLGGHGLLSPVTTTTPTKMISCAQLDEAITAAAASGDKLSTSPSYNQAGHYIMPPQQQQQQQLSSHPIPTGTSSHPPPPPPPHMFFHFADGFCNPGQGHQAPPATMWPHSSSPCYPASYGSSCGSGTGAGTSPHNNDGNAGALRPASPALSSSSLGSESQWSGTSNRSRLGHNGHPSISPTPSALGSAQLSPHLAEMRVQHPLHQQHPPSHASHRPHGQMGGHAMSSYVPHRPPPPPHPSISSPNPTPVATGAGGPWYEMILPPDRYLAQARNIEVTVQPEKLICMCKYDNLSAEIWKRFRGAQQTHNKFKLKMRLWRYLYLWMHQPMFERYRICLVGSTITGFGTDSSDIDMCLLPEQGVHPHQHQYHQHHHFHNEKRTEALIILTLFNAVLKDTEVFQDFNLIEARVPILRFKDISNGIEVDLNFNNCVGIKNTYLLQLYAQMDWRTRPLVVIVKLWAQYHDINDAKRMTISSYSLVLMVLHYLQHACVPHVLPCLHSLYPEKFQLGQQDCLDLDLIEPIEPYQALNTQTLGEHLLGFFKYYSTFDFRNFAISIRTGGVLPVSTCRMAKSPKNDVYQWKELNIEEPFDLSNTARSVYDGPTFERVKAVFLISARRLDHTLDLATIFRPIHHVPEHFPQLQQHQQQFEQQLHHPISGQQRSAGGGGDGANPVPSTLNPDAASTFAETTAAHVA
Description: co-IP; endogenous proteins; 150 µg Drosophila 90 min embryo extract with antibody on Protein A Dynabeads, 1 h at 4°C in 1× NET buffer (50 mM TRIS-HCl pH 7.5, 150 mM NaCl, 0.1% NP40, 1 mM EDTA); pellets treated or not with 10 µg RNase A; western blot; controls: dcr-2 null extract, nonspecific IgG.

Assay [2] has as its target Dicer-2 (Drosophila melanogaster (endogenous in 90 min embryos)) (UniProt A1ZAW0). Described as above.

Regarding “Dicer-2 (from UniProt A1ZAW0 1-1722) (enzyme)”, the binding result in assay [1] is “binds”.

B1: Wispy (enzyme, UniProt Q9VYS4 1-1373)
chain: T1 sequence
For B1, the binding entry in assay [2] is given as “binds”.

B2: R2D2 (protein, UniProt Q9VLW8 1-311)
chain: MDNKSAVSALQEFCARTQINLPTYSFIPGEDGGYVCKVELLEIEALGNGRSKRDAKHLAASNILRKIQLLPGIHGLMKDSTVGDLDEELTNLNRDMVKELRDYCVRREMPLPCIEVVQQSGTPSAPEFVACCSVASIVRYGKSDKKKDARQRAAIEMLALISSNSDNLRPDQMQVASTSKLKVVDMEESMEELEALRRKKFTTYWELKEAGSVDHTGMRLCDRHNYFKNFYPTLKKEAIEAINSDEYESSKDKAMDVMSSLKITPKISEVESSSLVPLLSVELNCAFDVVLMAKETDIYDHIIDYFRTMLI
As for B2, the binding result in assay [1] was “no binding”.

B3: Ago-2 (protein, UniProt Q9VUQ5 1-1214)
chain: MGKKDKNKKGGQDSAAAPQPQQQQKQQQQRQQQPQQLQQPQQLQQPQQLQQPQQQQQQQPHQQQQQSSRQQPSTSSGGSRASGFQQGGQQQKSQDAEGWTAQKKQGKQQVQGWTKQGQQGGHQQGRQGQDGGYQQRPPGQQQGGHQQGRQGQEGGYQQRPPGQQQGGHQQGRQGQEGGYQQRPSGQQQGGHQQGRQGQEGGYQQRPPGQQQGGHQQGRQGQEGGYQQRPSGQQQGGHQQGRQGQEGGYQQRPPGQQQGGHQQGRQGQEGGYQQRPPGQQQGGHEQGRQGQEGGYQQRPSGQQQGGHQQGRQGQEGGYQQRPSGQQQGGHQQGRQGQEGGYQQRPSGQQQGGHQQGRQGQEGGYQQRPPGQQPNQTQSQGQYQSRGPPQQQQAAPLPLPPQPAGSIKRGTIGKPGQVGINYLDLDLSKMPSVAYHYDVKIMPERPKKFYRQAFEQFRVDQLGGAVLAYDGKASCYSVDKLPLNSQNPEVTVTDRNGRTLRYTIEIKETGDSTIDLKSLTTYMNDRIFDKPMRAMQCVEVVLASPCHNKAIRVGRSFFKMSDPNNRHELDDGYEALVGLYQAFMLGDRPFLNVDISHKSFPISMPMIEYLERFSLKAKINNTTNLDYSRRFLEPFLRGINVVYTPPQSFQSAPRVYRVNGLSRAPASSETFEHDGKKVTIASYFHSRNYPLKFPQLHCLNVGSSIKSILLPIELCSIEEGQALNRKDGATQVANMIKYAATSTNVRKRKIMNLLQYFQHNLDPTISRFGIRIANDFIVVSTRVLSPPQVEYHSKRFTMVKNGSWRMDGMKFLEPKPKAHKCAVLYCDPRSGRKMNYTQLNDFGNLIISQGKAVNISLDSDVTYRPFTDDERSLDTIFADLKRSQHDLAIVIIPQFRISYDTIKQKAELQHGILTQCIKQFTVERKCNNQTIGNILLKINSKLNGINHKIKDDPRLPMMKNTMYIGADVTHPSPDQREIPSVVGVAASHDPYGASYNMQYRLQRGALEEIEDMFSITLEHLRVYKEYRNAYPDHIIYYRDGVSDGQFPKIKNEELRCIKQACDKVGCKPKICCVIVVKRHHTRFFPSGDVTTSNKFNNVDPGTVVDRTIVHPNEMQFFMVSHQAIQGTAKPTRYNVIENTGNLDIDLLQQLTYNLCHMFPRCNRSVSYPAPAYLAHLVAARGRVYLTGTNRFLDLKKEYAKRTIVPEFMKKNPMYFV
Consider B3, for which the binding entry in assay [1] is listed as “binds weakly”.

B4: UNR (protein, UniProt B7Z0E2 1-1039)
chain: MNTQSKVYRTGEEIYDNLPCDSYFNMNAIRNLGIPTTFPTIGTFTLDSTTLGLQPQGQGPSPQQQQHQQQQQQQQQQHQQNMHHHQHQQQHMQQQQQQQQHQQQHQQQQHQQQQQHQQQQQQQQQHPTIGMFDANEVNDVIQNPPQIGVFQSNSVLTNGAGSGSSIFGSQSSNSSAAAADPSQTTRETGIIEKLLHSYGFIQCCERQARLFFHFSQFSGNIDHLKIGDPVEFEMTYDRRTGKPIASQVSKIAPEVVLSEERVTGTVTTELRTDSANNVLNSSETTGRISYENRGECFFLPYTKDDVEGNVNLRAGDKVSFQIATNQRGNLGACHIRLENPAQPVKYRGVVCSMKESFGFIERADVVKEIFFHFSEAEGNVELRPGDDVEFTIQTRSSASVPPQGREFACNITRLAPGSVIFEDVDSTVYKGQVLKSLDRNNPVRQNNDPLPGRIRYRALDYSEVEVPFGDKDQKGDFTLRHGDWVQFLLATDRRDQLQRATSIALLDETFKVSGEKREQGTIASLKEGFGFLRCVERQARLFFHFTEVLDTSREIDINDEVEFTVIQEPGLAYNNSRLQAIRIKHLPPNSVQFETLVASNIEGCVTREAPKSPIKSQDRVEGGVITYEHADVKKTIMYFLKDCEKPPRIGERVRFDIYMVKRNKECIAVNVQQVSLHQQQQQQQQQLHLNQSNAGANINQNDQLGGLSNGISSSSSNASLQNGYVMHGSPGGSTSSVGSNNPVHLDEFKMENNNHAGSDAGQVYRGFIAVMKENFGFIETLSHDEEVFFHFSNYMGNPNWLELGQEVEYTLARNGNTSVSGNCLPAENVRMLPKNSIPQPAVLETTHNGVVARPLRCINPDQQEYAGLIEILDELRTTVISQHEFGITSLVNKRDLLQKGDLVSFRIDESGRAACVNAVRQKKRATVDSIKGQFGFLNFEVEDGKKLFFHMSEVQGNTVALHPGDTVEFSVVTNQRNGKSSACNVLKINDRPDRLISRLKLNGDDTVPRLILIRAPKGPQGKGFSVLARHPRIPGNLVE
Regarding B4, the binding entry in assay [2] and in assay [1] was “no binding” in each case.
